# Measurements as given in the supplement of paper PMC11417369.
# The other results are listed elsewhere or left out.
# Tested on: PF3D7_0420300 AP2 domain 1 (GST-tagged)
# Assay: gcPBM binding intensity (ln(normalized median fluorescence intensity)); higher = stronger DNA binding
# In short: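 After 1 h on an Agilent 4 × 180k array of primer-extended double-stranded 36-bp intergenic genomic probes and negative controls, bound GST-tagged P. falciparum DNA-binding domains were detected with Alexa488 anti-GST antibody and scanned at 488 nm. The domains had been expressed in E. coli, and binding took place in 1× PBS with 1% milk, 0.2 mg/ml BSA, 0.5% salmon testes DNA and 0.03% Triton X-100. Binding intensity is the highest Masliner-normalised natural-log median intensity across replicate spots of either probe orientation.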
row,Sequence,gcPBM binding intensity (ln)
1,TGACATAATGTGTGTAGTACATATATCGTTATTTGA [XGTACX_site5152],9.46
2,TGAATAAATATAAAAGGTACACATATAAATATATAT [XGTACX_site6349],9.51
3,ATAAAAATAAAATAAGGTACAGACGAAAAAATTGAA [XGTACX_site5097],9.74
4,ATAATATTATGTGTGAATATATCTTTAAAAAGGATA [GTGCAC_negctrl_site15],9.25
5,TATATATTTCATAATACACACGAAAAAAAAAAAAAA [CACACA_site8972],9.31
6,CACAAAAATAGACACACACACATATAAATAAATATA [CACACA_site6598],10
7,ATATATATATATATATGTACACATATTATAAAAAAA [XGTACX_site8644],9.04
8,ATATATATTATATAGTGTACCTATGTATAATAATAT [XGTACX_site1683],9.2
9,TATATATATAAATACACACACACCGTCCGTGTTAAA [CACACA_site5623],9.73
10,AATACGTTATTATTTTGTACATATAAATAATAAGTT [XGTACX_site815],9.14
11,ACTCTTTTAACGCAAAGTACTTTTTAAAATATTTCG [XGTACX_site7534],9.27
12,AACATACGAATATTCACACATAAATATATAAATCGC [CACACA_site4672],9.57
13,ATTTCTATTTGGGTTAGTACATATAAGTCTATTTTC [XGTACX_site3234],9.45
14,TATATAATCGAGTGCACACACAAAAAAAAAGTGAAC [CACACA_site1483],9.92
15,TTTTTTTTTTCTTTTTGTACATATTCATAACAAGTA [XGTACX_site2784],9.1
16,TATTATATATATATCACACATATATTCATGTACATA [CACACA_site5432],9.33
17,TTTGACATACCTCTTGCATGTGAAAAACTTTTCGCT [TGCATGCA_site364],9.11
18,ATATATAATATTTATTGTACTATTTTATTTTTATAA [XGTACX_site705],9.28
19,AAAAAAGACCATGTTAGTACATAAGATTTTTTTCAT [XGTACX_site4298],9.18

row,Sequence,gcPBM binding intensity (ln)
1,AATTTTCTTAAAATTTGTACGTATATATTTAATATA [XGTACX_site3906],9.1
2,GTCATATATAATTGTTGTACATTTTTATAATTATGT [XGTACX_site8091],9.47
3,AATATAAATGTGATTACACACAACACATTTAAATGT [CACACA_site1212],9.6
4,AAAAAATTATATTATGCACACATCGTTATATATATA [CACACA_site1201],9.43
5,TATATATACTATAACACACATACACCCAAAAAAAAA [CACACA_site536],9.8
6,CTTATACATATATATAGTACATATATCATTTTTATG [XGTACX_site4462],9.39
7,TTAAAAAGATGTCACTGTACATAAAACATAAAATAT [XGTACX_site2886],9.41
8,TTTCATGACAATGTTTGTACATAATAAAATATATTT [XGTACX_site7039],8.94
9,TAAACAGACATATAAACACACATACATACATACATA [CACACA_site7215],9.56
10,AAAAAAAAAAAAAAAACACACATAAAACTATAATAA [CACACA_site7758],9.47
11,GAAGAGACTTAGAAAACACACATACATAAGATAATT [CACACA_site5333],9.63
12,ATATGTATCTCATCGTGTACATGTATATAATATATA [XGTACX_site4139],9.37
13,ATATAGTAAAGTTATACACACATGAATTTTCCCATG [CACACA_site6923],9.55
14,ATATATCAAAATAATTGTACAAATTTTATATAATTT [XGTACX_site7249],9.12
15,TTAGAAAAATTATATATACACACTTATATTTATATA [CACACA_site2821],9.13
16,GTATTACATGAGGACACACACAAAAAAAATATATAT [CACACA_site769],9.91
17,TAATTATTTTAAAAAGTGCATTAAAAGATATTAAAT [GTGCAC_site9694],9.05
18,TTATTATAAAAATGTAGTACAATACTTTTTTTTTTT [XGTACX_site732],8.84
19,TATATATCTATAAACACACACCAAAATTTGTGCTTT [CACACA_site7448],9.48

row,Sequence,gcPBM binding intensity (ln)
1,ATAAAATGAACAAACACACACACATATATTTATATA [CACACA_site7181],10.1
2,AAATAAAAAGAAAAGAAAAAGAAAATAAAAAGAGAA [XGTACX_negctrl_site14],9.72
3,ATATACTTTAAAGGTTAAGAAAGAAAAAAAAAAAAA [CACACA_negctrl_site956],8.93
4,ATATATATATATTATATGCACACGTTAAAATTTCAT [CACACA_site709],9.42
5,AAAAATAAATTTATATATTACAAGAACAAATATAGT [XGTACX_negctrl_site567],9.42
6,GAATAAATAAGATACGTACACACATATACAAAATAT [CACACA_site3660],9.88
7,ATAATATAAACGTATACACACAAGAGAAGCATAAAG [CACACA_site2889],9.96
8,AAAAGGAAAGGAAAGGGTACAATCCTATTATATTAT [XGTACX_site8652],9.25
9,TTTTTTTAAAAAAAGGGTACATATATATATTTTTCT [XGTACX_site1066],9.07
10,TTATATTTAGTATATGCACACTTTATGTTTGTTATT [CACACA_site5163],9.48
11,TATAAATACGAACACACACACCTTATAATTACTACT [CACACA_site7827],9.98
12,AAGAAAGGTTAAACATGTACATAAATATTTTACATA [XGTACX_site5024],9.36
13,TATCTTTTTATTTTTTATTTTTTTTTTATAATTTAC [XGTACX_negctrl_site414],9.27
14,TCATTGAAAATTGTTGCACACATAATAATTAAATAT [CACACA_site8554],9.26
15,ACACATATGTCTTCATGTACATAATATATAAATCTT [XGTACX_site3438],9.26
16,CATAAATCAGCCATAACACACATACATATATACATA [CACACA_site8025],9.63
17,TCTTGTTTATCAACAGCACACACAACAACAACAACA [CACACA_site8046],9.49
18,TAAAGGTAGATATATTGTACATACACACCTATATAA [XGTACX_site6865],9.31
